Assay results from patent US20110039874A1 (Northeastern University, priority 2007, published 2011).

Tests used:
[1] = biological target: T1, Monoacylglycerol lipase (MGL) (Rattus norvegicus, UniProt Q8R431); details: 100 µM
T1 sequence (Q8R431 1-303): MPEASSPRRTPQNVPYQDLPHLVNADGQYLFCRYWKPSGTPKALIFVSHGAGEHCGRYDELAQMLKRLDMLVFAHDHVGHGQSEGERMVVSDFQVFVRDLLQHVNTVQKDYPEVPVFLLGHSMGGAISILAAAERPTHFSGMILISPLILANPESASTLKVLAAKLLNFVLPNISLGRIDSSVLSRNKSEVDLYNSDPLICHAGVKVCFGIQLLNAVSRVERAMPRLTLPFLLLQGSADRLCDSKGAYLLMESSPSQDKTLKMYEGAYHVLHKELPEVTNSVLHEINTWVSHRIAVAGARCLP

[2] = biological target: T1, Monoacylglycerol lipase (MGL); assay: biochemical

inhibition [1] | IC50 [2] | Ki [2] | Structure (SMILES)
– | 17.9 µM | 4.5 µM | CC(=O)C(F)(F)CCCCOc1cccc(OCc2ccccc2)c1 [Compound 89.1]
72% | – | – | CC(=O)C(F)(F)CCCCCOc1ccccc1 [Compound 89.4, 3,3-Difluoro-8-phenoxy-2-octanone]
– | 0.071 µM | 0.017 µM | Cc1nnc(C(=O)C(F)(F)CCCCCCOc2ccccc2)o1 [Compound 89.7, 2,2-Difluoro-8-phenoxy-1-(5-methyl-1,3,4-oxadiazol-2-yl)-octan-1-one]
55% | – | – | Cc1cccc(C(=O)C(F)(F)CCCCOc2ccccc2)c1 [Compound 89.8]
59% | 0.99 µM | 0.25 µM | O=C(c1ccccn1)C(F)(F)CCCCOc1ccccc1 [Compound 89.9, 2,2-Difluoro-6-phenoxy-1-(pyridin-2-yl)-hexan-1-one]
25% | – | – | O=C(c1cccnc1)C(F)(F)CCCCOc1ccccc1 [Compound 89.10, 2,2-Difluoro-6-phenoxy-1-(pyridin-3-yl)-hexan-1-one]
65% | – | – | O=C(c1cccnc1)C(F)(F)CCCCOc1cccc(OCc2ccccc2)c1 [Compound 89.11, 2,2-Difluoro-6-[3-(benzyloxy)phenoxy]-1-(pyridin-3-yl)-hexan-1-one]
73% | 0.215 µM | 0.054 µM | Cc1nnc(C(=O)C(F)(F)CCCCOc2ccccc2)o1 [Compound 89.12]
– | 0.072 µM | – | Cc1nnc(C(=O)C(F)(F)CCCCOc2cccc(OCc3ccccc3)c2)o1 [Compound 89.13]
– | 51.6 µM | 12.9 µM | CCOC(=O)C(=O)c1ccc(-c2ccccc2)cc1 [Compound 91.1, Ethyl 2-(biphenyl-4-yl)-2-oxoacetate]
23% | – | – | CCOC(=O)C(=O)c1ccccc1 [Compound 91.2]
50% | 0.34 µM | 0.086 µM | Cc1nnc(C(=O)C(F)(F)c2ccc(-c3ccccc3)cc2)o1 [Compound 93.1, 2-(Biphenyl-4-yl)-2,2-difluoro-1-(5-methyl-1,3,4-oxadiazol-2-yl)ethanone]
– | 1.69 µM | 0.42 µM | Cc1nnc(C(=O)C(F)(F)c2ccc(Br)cc2)o1 [Compound 93.5, 2-(4-Bromophenyl)-2,2-difluoro-1-(5-methyl-1,3,4-oxadiazol-2-yl)ethanone]
91% | – | – | O=C(c1cccc(Br)n1)C(F)(F)c1ccc(-c2ccccc2)cc1 [Compound 93.7, 2-(Biphenyl-4-yl)-1-(6-bromopyridin-2-yl)-2,2-difluoroethanone]
32% | – | – | O=C(c1nc2ccccc2s1)C(F)(F)c1ccccc1 [Compound 93.8]
76% | – | – | O=C(CCCCCCOc1ccccc1)C(F)(F)c1ccccn1 [Compound 96.1, 1,1-Difluoro-8-phenoxy-1-(pyridin-2-yl)octan-2-one]
86% | – | – | O=C(c1ccc(-c2ccccc2)cc1)C(F)(F)c1ccccn1 [Compound 96.2, 1-(Biphenyl-4-yl)-2,2-difluoro-2-(pyridin-2-yl)ethanone]

More lines, now with the values behind:

Structure (SMILES) | inhibition [1] | IC50 [2] | Ki [2]
O=S(=O)(F)CCCCOc1ccccc1 [Compound 17, 4-Phenoxybutylsulfonyl fluoride] | 26% | 915 µM | 298 µM
O=C(CCCOc1ccc(OCc2ccccc2)cc1)C(F)(F)F [Compound 23.1, 1,1,1-Trifluoro-5-[4-(benzyloxy)phenoxy]-2-pentanone] | 65% | 103 µM | 28 µM
O=C(CCCCOc1ccc(OCc2ccccc2)cc1)C(F)(F)F [Compound 23.2, 1,1,1-Trifluoro-6-[4-(Benzyloxy)phenoxy]-2-hexanone] | 64% | 86.2 µM | 23.7 µM
O=C(CCCCCOc1ccc(OCc2ccccc2)cc1)C(F)(F)F [Compound 23.3, 1,1,1-Trifluoro-7-[4-(Benzyloxy)phenoxy]-2-heptanone] | 61% | 109 µM | 30 µM
O=C(CCCOc1cccc(OCc2ccccc2)c1)C(F)(F)F [Compound 23.5, 1,1,1-Trifluoro-5-[3-(Benzyloxy)phenoxy]-2-pentanone] | 69% | 51.6 µM | 14.2 µM
O=C(CCCCOc1cccc(OCc2ccccc2)c1)C(F)(F)F [Compound 23.6, 1,1,1-Trifluoro-6-[3-(Benzyloxy)phenoxy]-2-hexanone] | 66% | 83.4 µM | 23.8 µM
O=C(CCCCCOc1cccc(OCc2ccccc2)c1)C(F)(F)F [Compound 23.7, 1,1,1-Trifluoro-7-[3-(Benzyloxy)phenoxy]-2-heptanone] | 38% | 329 µM | 66.7 µM
O=C(CCCCCOc1ccccc1OCc1ccccc1)C(F)(F)F [Compound 23.10, 1,1,1-Trifluoro-7-[2-(Benzyloxy)phenoxy]-2-heptanone] | 66% | 32.7 µM | 9 µM
O=C(CCCCCCOc1ccc(O)cc1)C(F)(F)F [Compound 24.4, 1,1,1-Trifluoro-8-[4-(hydroxy)phenoxy]-2-octanone] | 42% | 130 µM | 26.4 µM
O=C(c1cccc(-c2cccc(OCc3ccccc3)c2)c1)C(F)(F)F [Compound 30] | 36% | 433 µM | 109 µM
CCCCCCC(C)(C)c1cc(O)c(-c2ccc(C(=O)C(F)(F)F)cc2)c(O)c1 [Compound 40.1, 1-(2′,6′-dihydroxy-4′-(2-methyloctan-2-yl)biphenyl-4-yl)-2,2,2-trifluoroethanone] | 85% | 36 µM | 9 µM
O=C(Nc1ccc(Br)cc1)OC12CC3CC(CC(C3)C1)C2 [Compound 48.4] | 99% | 15.4 µM | 3.9 µM
CSc1ccccc1-c1ccc(NC(=O)OC23CC4CC(CC(C4)C2)C3)cc1 [Compound 53.36] | 12% | – | –
CCCCCN(C)C(=O)OC12CC3CC(CC(C3)C1)C2 [Compound 53.45] | 13% | – | –
CCCCN(C)C(=O)OC12CC3CC(CC(C3)C1)C2 [Compound 53.46] | 14% | – | –
O=C(OC12CC3CC(CC(C3)C1)C2)N1CCC(c2ccccc2)CC1 [Compound 53.47] | 22% | – | –
COCC(=O)NCc1ccc(Br)cc1 [Compound 57.1] | 44% | – | –
O=C(NCc1ccc(Br)cc1)OCc1ccccc1 [Compound 57.2, (4-Bromobenzyl)carbamic acid benzyl ester] | 92% | – | –
Cc1nnc(C(=O)CCCCCCOc2ccccc2)o1 [Compound 65.1, 7-Phenoxy-1-(5-methyl-1,3,4-oxadiazol-2-yl)-heptan-1-one] | 6% | – | –
O=C(CCCCCCOc1ccc(O)cc1)c1nnc(COCc2ccccc2)o1 [Compound 74.2, 1-(5-benzyloxymethyl-1,3,4-oxadiazol-2-yl)-7-(4-hydroxy-phenoxy)-heptan-1-one] | 29% | – | –
O=C1c2ccccc2S(=O)(=O)N1CCCCOc1ccccc1 [Compound 83.2, N-(4-Phenoxy-butyl)saccharin] | 2% | – | –
O=C1c2ccccc2S(=O)(=O)N1CCCCOc1ccc(OCc2ccccc2)cc1 [Compound 83.3, N-[4-(4-Benzyloxy-phenoxy)-butyl]saccharin] | 1% | – | –
CCOC(=O)C(=O)CCCCOc1cccc(OCc2ccccc2)c1 [Compound 87.1] | 82% | – | –
CCOC(=O)C(=O)CCCCCOc1ccccc1 [Compound 87.4, 2-Oxo-7-phenoxy-heptanoic acid ethyl ester] | 66% | – | –
CCOC(=O)C(=O)c1ccc(Br)cc1 [Compound 91.5, Ethyl 2-(4-bromophenyl)-2-oxoacetate] | 79% | – | –
